Drawing on publication PMC12497685, “Anticoronavirus Isoquinoline Alkaloids: Unraveling the Secrets of Their Structure–Activity Relationship” (Influenza and Other Respiratory Viruses, 2025), this text covers EC50 for 2 compounds.

A word on the EC50: it is the midpoint of the concentration-response curve.

The experiment deals with HCoV‐229E. The experiment is described as follows: microbe, parasite or virus in culture. Type of experiment: cell-based. To be noted: Human coronavirus 229E, Huh-7, read-out: HCoV‐229E, EC50.

For the compound `COc1cc2c3cc1Oc1c(OC)c(OC)cc4c1[C@@H](Cc1ccc(O)c(c1)Oc1ccc(cc1)C[C@@H]3N(C)CC2)N(C)CC4` [Compound 17, (+)‐berbamine], the 50% effective concentration (EC50) was 5.11 ± 0.79 µM.

For the compound `COc1cc2c3cc1Oc1c(O)c(OC)cc4c1[C@@H](Cc1ccc(O)c(c1)Oc1ccc(cc1)C[C@@H]3N(C)CC2)N(C)CC4` [Compound 19, (+)‐obamegine], the half-maximal effective concentration (EC50) was 8.07 ± 0.9 µM.
